In all, about 33,000 sequences were measured (“E-score (-0.5 to 0.5)”: median about -0.016, highest 2% from about 0.31 on). The list shows a part of the results.
biological target: Cst6 (UniProt P40535); experiment: PBM E-score (8-mer binding enrichment) (E-score (-0.5 to 0.5)); higher = stronger / more preferred TF binding; most listed sequences are background and not binding sites; conditions: protein concentration: 200 nM; construct: GST-DNA-binding domain
Summary of the method: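 Yeast transcription factors carrying a GST tag, as full-length proteins or DNA-binding domains, were produced by PURExpress in vitro transcription/translation. About 100-200 nM protein was applied to universal all-10-mer Agilent arrays, double-stranded by primer extension on fresh or once-stripped slides. Bound protein was detected with fluorescent anti-GST, and scans were normalised with masliner. The Universal PBM Analysis Suite gave each ungapped eight-base word, pooled with its reverse complement, an E-score, a modified Wilcoxon-Mann-Whitney statistic.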

Sequence	PBM E-score
ATATAAAG	0.17
GGCGCATA	0.0666
ATCTGTAG	-0.163
TACACGGA	0.179
GCCACAGC	-0.106
AACTCAAA	0.0489
AAGCGACG	-0.212
CAGGGCAC	0.00975
GCAGTACC	-0.0815
AGTAATAG	0.211
CGATGGCC	-0.162
CTCGACTA	-0.135
AGGGGCCA	-0.327
CGTAAGCC	0.159
GTAGGTGA	0.0559
TCAGATGA	0.249
GATCGCGA	0.00924
CTGTACAA	0.0163
TACGGAGA	-0.00509
TGACGAAA	0.477
CCGGTAAG	-0.0691
GCGCTCTA	-0.0714

Sequence	PBM E-score
TAACGCGA	-0.0127
GGTTTCGA	0.0179
ATGGGGAG	-0.269
TATCTAAA	0.0577
AAAAAGCC	0.211
AGATTGTA	0.193
AACTGTAT	0.0562
CCTCATAG	0.0666
CCAGGAAG	-0.092
GCTAGTAC	-0.217
TCATCGCA	0.107
AGAGGCAG	-0.148
AATAGTGA	0.241
AGGGAGTG	-0.139
AGCACGTG	0.13
ACTAGCCC	-0.0733
AATGCGTC	0.0833
CGGCTACC	-0.0393
CTGGCTCC	-0.322
AGAGCCTC	-0.115
GTTCCTTA	-0.0308
ACGGGAAG	-0.268

Sequence	PBM E-score
CAGAGTAA	0.0498
CAGAGATA	0.101
AGTTCGAT	-0.00384
AATGGGGG	-0.312
AAGAAAGC	0.0288
AACTCCGT	0.0842
ACAGCCAT	-0.0688
ACAACACA	0.206
CAACCGAA	0.0726
GCGGGTAC	-0.045
ACGGTAAG	-0.0599
AGAATGGC	-0.0246
AGGCAACT	0.143
TATCCTCA	0.0186
AAGGGACC	-0.176
AACGAAAT	0.156
AAAGCACA	0.143
GGTTACAA	0.145
AACGGGCG	-0.12
AATACATA	0.217
AACCTGCA	-0.119
AAACTAGC	-0.172

Sequence	PBM E-score
GGATAAAC	0.187
CCCCGTGA	-0.0686
CGCAGGTC	-0.269
GAGAATAA	0.149
AAGAAATC	0.0481
CATTAGAC	-0.113
GCTCATGA	0.0394
GAGGGGTA	-0.351
AGAGCGAA	-0.0706
AGCGAGTA	-0.117
CTGAGACC	-0.273
GATCTCAA	0.0948
ACTGGCAC	-0.149
AGTGCCAA	-0.216
GGATGGCC	-0.319
TATAAATA	0.294
GGGTTTAC	-0.00957
ATACCTAA	0.208
ATACGCCG	0.121
ATCCGTCG	-0.12
